Screen size: about 410,000 compounds; about 6,400 (1.6%) were called active. The inconclusive results got no clear call from the source; some entries with a clear call stand among them for comparison. Calls come from the whole dose curve; as a rule, active = well fitted inhibition curve with a large enough effect; inconclusive = small, poorly fitted or top-dose-only effect; inactive = no such curve, though single readings can be large or run the other way. A potency beside an inconclusive call is a rough fit, not a confirmed value.
These molecules were tested against Glucagon-like peptide 1 receptor (Homo sapiens) (UniProt P43220) (assay: qHTS of GLP-1 Receptor Inverse Agonists (Inhibition Mode)). Settings: HEK293 GLP-1R CRE-luciferase, luminescence, 24 h, GLP-1R form is constitutively active; activity change, negative = inhibition: at 38.3 µM (top of the series) unless noted.
Summary of the method: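 Readout was luciferase luminescence, measured 12 min after detection reagent at room temperature. Beforehand, GLP-1R reporter HEK293 cells had sat 12 h, then received compounds for 24 hr at 37 deg C.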
% is set by controls: 0 for no effect and ±100 for the full control effect; potency is the fitted concentration of half-maximal effect; tags give direction and shape of the fitted curve.
Note: nearly all actives have a fitted effect of over 55% in size.

Sequence of UniProt P43220 (P43220 whole entry, looked up): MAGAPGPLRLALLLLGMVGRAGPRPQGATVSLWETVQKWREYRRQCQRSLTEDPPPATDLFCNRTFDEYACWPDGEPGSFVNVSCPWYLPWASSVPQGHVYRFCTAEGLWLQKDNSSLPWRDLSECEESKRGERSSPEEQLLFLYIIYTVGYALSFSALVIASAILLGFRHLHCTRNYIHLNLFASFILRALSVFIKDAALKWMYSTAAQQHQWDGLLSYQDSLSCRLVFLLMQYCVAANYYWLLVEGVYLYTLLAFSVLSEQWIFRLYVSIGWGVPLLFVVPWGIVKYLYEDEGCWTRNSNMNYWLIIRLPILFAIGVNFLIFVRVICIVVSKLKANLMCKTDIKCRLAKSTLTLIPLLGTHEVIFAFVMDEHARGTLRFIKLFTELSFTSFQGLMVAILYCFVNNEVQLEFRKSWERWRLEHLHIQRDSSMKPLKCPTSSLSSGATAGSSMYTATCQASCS

Activity change, negative = inhibition, inactive:
COc1ccccc1/C=C/C=C1\Oc2c(ccc(O)c2CN2CCN(CCO)CC2)C1=O 33.2%, CCOC(=O)c1c(C)c2c(=O)[nH]cnc2n1-c1ccccc1 29.5%, CC(C)(C)c1ccc(C(=O)Nc2cc(-c3ccccc3)nn2-c2ccccc2)cc1 -30.5%, COCCCN(C(=O)c1cc(C)oc1C)c1c(N)n(CC(C)C)c(=O)[nH]c1=O 3.8%, CCc1nc2c(OCCn3cccc3)cccn2c1N(C)C(=O)C1CC1 1%, O=C(NCc1ccccn1)c1ccc(N2CCCC2=O)cc1 26.8%, CC[C@@H](C(=O)n1nc(C)cc1C)[C@H](NS(=O)(=O)c1ccc(C)cc1)c1ccccc1 11.1%, CN1C[C@@H]2C(c3ccccc3)C3(c4ccc(C#N)cc4)CC2(C3)[C@H]1c1ccccc1 (some centres not stated) -23.2%, CCCn1nnc(NC(=S)NC(=O)c2ccccc2OC)n1 -22.6%, CCCN(CCC)CCNC(=O)Cn1ncc2c([nH]c3ccc(C)cc32)c1=O 3.6%, CC(NC(=O)C1CCN(C(=O)N2CCOc3ccc(Cl)cc32)CC1)c1ccccc1 (configuration not stated) -16.7%, Cc1ccccc1C(=O)Nc1ccnn1C1CCN(Cc2ccccn2)CC1 11.5%, Cc1ccc2c(CC(=O)Nc3c(C(=O)c4ccc(F)cc4)oc4ccccc34)coc2c1 0.691%

Potency, active:
O=C(c1cccc(Br)c1)c1cn(-c2ccccc2)nc1C(=O)c1ccccc1 3.55 µM

Potency, inconclusive:
CC1CC(C)CN(C(=O)c2cccc(S(=O)(=O)NCc3ccccc3)c2)C1 (configuration not stated) 8.91 µM [inhibitor, partial curve, poor fit], Cc1ccc(C(C)C)c(OCC(=O)NC2CCN(C)CC2)c1 14.1 µM [inhibitor, single point], CN1C(=O)C2(Nc3ccccc3-c3nc4ccccc4n32)c2ccccc21 (configuration not stated) 10 µM [inhibitor, partial curve, poor fit], CC1CCN(S(=O)(=O)c2cc(C(=O)NCCc3ccccc3)n(C)c2)CC1 11.2 µM [inhibitor, single point], Nc1n[nH]c(N)c1N=Nc1cccc(C(F)(F)F)c1 22.4 µM [inhibitor, partial curve, poor fit], CCn1c(SCC(=O)N2CCCc3ccccc32)nc2ccccc2c1=O 10 µM [inhibitor, single point], Cc1ccc(S(=O)(=O)N(C)c2ccc(C(=O)Nc3ccccn3)cc2)cc1 28.2 µM [inhibitor, single point], COc1ccc(C)cc1S(=O)(=O)NCC(c1ccco1)N1CCc2ccccc2C1 (configuration not stated) 28.2 µM [inhibitor, single point], COc1ccc(-c2csc(NC(=O)c3ccccc3Br)c2C(=O)O)cc1 28.2 µM [inhibitor, single point], COc1ccc(N2CCN(C(=O)c3ccc(NC(=O)c4nsc5ccccc45)cc3)CC2)cc1 28.2 µM [inhibitor, single point], S=C(NCc1ccco1)Nc1ccccn1 25.1 µM [inhibitor, partial curve, poor fit], COc1cc(C(=O)NC2CCN(Cc3ccccc3)CC2)cc(Cl)c1OC 10 µM [inhibitor, partial curve, poor fit], Cc1ccc(S(=O)(=O)N(C)CCCC(=O)Nc2ccncc2)cc1 11.2 µM [inhibitor, partial curve, poor fit], Cc1ccc(C)c(N2CCN(C(=O)CCC(=O)Nc3nnc(C(F)(F)F)s3)CC2)c1 11.2 µM [inhibitor, partial curve, poor fit], C/C(N)=C(/C#N)C(=O)CSc1nnc(-c2ccc3c(c2)OCO3)o1 1.26 µM [inhibitor, full curve], COc1ccc(C(=O)CC(Nc2ccc([N+](=O)[O-])cc2)c2ccc(OC)cc2)cc1 (configuration not stated) 7.94 µM [inhibitor, partial curve, poor fit], NC(=O)c1ccc(OCC(F)(F)C(F)(F)C(F)(F)C(F)(F)C(F)(F)C(F)F)cc1 22.4 µM [inhibitor, single point], COCCC(=O)N1CCC(Oc2ccc(C(=O)NCCCC3CCCC3)cc2)CC1 10 µM [inhibitor, partial curve], Cc1ccc(C(=O)N2CCCC2)cc1S(=O)(=O)Nc1ccccc1 31.6 µM [inhibitor, single point], CC(OC(=O)CSCC(=O)Nc1ccc(Cl)cc1)C(=O)N(C)Cc1ccccc1 (configuration not stated) 28.2 µM [inhibitor, single point], COc1cccc(NC(=O)CN(C)C(=O)Cc2cccc3ccccc23)c1 11.2 µM [inhibitor, partial curve, poor fit], COc1cc(OC)cc(-c2c(-c3cccs3)c3cc(-c4cccc5[nH]ccc45)ccc3n2C)c1 5.01 µM [inhibitor, partial curve], C=CCNC(=O)c1onc(CSc2cccc(OCC)c2)c1C(=O)O 28.2 µM [inhibitor, single point], CC(Oc1cc(C(F)(F)F)cc(C(F)(F)F)c1)C(=O)NC(N)=O (configuration not stated) 20 µM [inhibitor, partial curve, poor fit], COc1ccc(OC)c(CC(=O)Nc2ccc3c(c2)c(=O)n(C)n3Cc2cccc(C(F)(F)F)c2)c1 31.6 µM [inhibitor, partial curve, poor fit], O=C(Nc1ccc2c(c1)OCCO2)C(c1ccc(C(F)(F)F)cc1)n1c(=O)c(-c2cc3ccccc3[nH]2)nc2ccccc21 (configuration not stated) 11.2 µM [inhibitor, partial curve, poor fit], COc1ccccc1C(=O)N/C(=C\c1ccccc1)C(=O)NCc1ccco1 10 µM [inhibitor, single point], Cc1nn(-c2ccccc2)c(C)c1C(=O)OCC(=O)Nc1ccccc1C(F)(F)F 3.55 µM [inhibitor, partial curve, poor fit], N/C(=N\OC(=O)COc1ccc(Cl)cc1Cl)c1ccncc1 28.2 µM [inhibitor, single point], Cc1ccsc1C(=O)N1CCCC(N2CCN(c3cccc(Cl)c3)CC2)C1 (configuration not stated) 22.4 µM [inhibitor, single point], Cc1ccc2c(c1)C=CC(C)N2C(=O)c1ccccc1 (configuration not stated) 11.2 µM [inhibitor, partial curve, poor fit], CCC(C)[C@H](NC(=O)N1CCn2c1nc1ccccc12)C(=O)NCc1ccccc1 (some centres not stated) 28.2 µM [inhibitor, single point], Cc1ccc(N2CC(C(=O)Nc3nccs3)CC2=O)cc1Cl (configuration not stated) 12.6 µM [inhibitor, single point], Cc1ccc(NC(=O)C2(C)CCN2C(=O)Cc2ccc(-c3ccccc3)cc2)cc1 (configuration not stated) 10 µM [inhibitor, single point], O=C(NC1CCCC1)C(c1ccccc1)n1c(-c2cccs2)nc2ccccc21 (configuration not stated) 28.2 µM [inhibitor, single point], COc1ccc(-n2c(Cc3cccn3C)nnc2SCC(=O)NCCc2ccccc2)cc1 11.2 µM [inhibitor, single point], CC(C)(C)C1CCc2c(sc(N)c2C(N)=O)C1 (configuration not stated) 28.2 µM [inhibitor, single point], Cc1ccc(C2CC(c3ccccc3OC(F)F)Nc3ncnn32)cc1 (configuration not stated) 3.98 µM [inhibitor, partial curve, poor fit], COc1cccc(NC(=O)C2(C)CCN2C(C)C)c1OC (configuration not stated) 2.51 µM [inhibitor, partial curve, poor fit], O=C(CCSCc1ccc(Cl)cc1)N1CCN(c2ccccc2F)CC1 31.6 µM [inhibitor, single point], O=C(CCCC1=NS(=O)(=O)c2ccccc2N1)N1CCN(c2ccccc2)CC1 11.2 µM [inhibitor, single point], S=C(NN=C1CCN(Cc2ccccc2)CC1)NC1CCCCC1 10 µM [inhibitor, single point], O=C(NCCc1c[nH]c2ccccc12)c1ccc(Cl)cc1 11.2 µM [inhibitor, partial curve, poor fit], CCOc1cc(C(=O)NC2CC(C)(C)NC(C)(C)C2)cc(OCC)c1OCC 2.24 µM [inhibitor, single point], O=C(c1[nH]c(C(F)(F)F)nc1-c1ccccc1)N1CCN(c2ccc(C(F)(F)F)cn2)CC1 28.2 µM [inhibitor, single point], COc1ccc(C(=O)C2CCCN(C3Cc4ccccc4C3)C2)c(OC)c1 (configuration not stated) 12.6 µM [inhibitor, partial curve, poor fit], CC(Oc1ccc(F)cc1)C(=O)Nc1cc(C(F)(F)F)ccc1-n1cncn1 (configuration not stated) 20 µM [inhibitor, single point], CCN(CC)CCN1C(=O)C2C(C(=O)Nc3ccc(Br)cc3)C3C=CC2(O3)C1C(=O)NC1CCCCC1 (configuration not stated) 12.6 µM [inhibitor, partial curve, poor fit]

Source: PubChem BioAssay AID624417 (National Center for Advancing Translational Sciences (NCATS), 2012)
